These results are taken from article PMC4336329 (PLoS ONE, 2015).

Molecules are shown by their SMILES. About 2,200 (0.71%) of roughly 310,000 compounds showed an effect of 50% or more. Effects have a minus sign here. Some of the results follow.

For this experiment, the target named is human ether-à-go-go-related gene (hERG) potassium channel (human, UniProt Q12809). In words: primary screen, population patch clamp on CHO cells stably expressing hERG.
Chain of human ether-à-go-go-related gene (hERG) potassium channel (Q12809 whole entry, looked up): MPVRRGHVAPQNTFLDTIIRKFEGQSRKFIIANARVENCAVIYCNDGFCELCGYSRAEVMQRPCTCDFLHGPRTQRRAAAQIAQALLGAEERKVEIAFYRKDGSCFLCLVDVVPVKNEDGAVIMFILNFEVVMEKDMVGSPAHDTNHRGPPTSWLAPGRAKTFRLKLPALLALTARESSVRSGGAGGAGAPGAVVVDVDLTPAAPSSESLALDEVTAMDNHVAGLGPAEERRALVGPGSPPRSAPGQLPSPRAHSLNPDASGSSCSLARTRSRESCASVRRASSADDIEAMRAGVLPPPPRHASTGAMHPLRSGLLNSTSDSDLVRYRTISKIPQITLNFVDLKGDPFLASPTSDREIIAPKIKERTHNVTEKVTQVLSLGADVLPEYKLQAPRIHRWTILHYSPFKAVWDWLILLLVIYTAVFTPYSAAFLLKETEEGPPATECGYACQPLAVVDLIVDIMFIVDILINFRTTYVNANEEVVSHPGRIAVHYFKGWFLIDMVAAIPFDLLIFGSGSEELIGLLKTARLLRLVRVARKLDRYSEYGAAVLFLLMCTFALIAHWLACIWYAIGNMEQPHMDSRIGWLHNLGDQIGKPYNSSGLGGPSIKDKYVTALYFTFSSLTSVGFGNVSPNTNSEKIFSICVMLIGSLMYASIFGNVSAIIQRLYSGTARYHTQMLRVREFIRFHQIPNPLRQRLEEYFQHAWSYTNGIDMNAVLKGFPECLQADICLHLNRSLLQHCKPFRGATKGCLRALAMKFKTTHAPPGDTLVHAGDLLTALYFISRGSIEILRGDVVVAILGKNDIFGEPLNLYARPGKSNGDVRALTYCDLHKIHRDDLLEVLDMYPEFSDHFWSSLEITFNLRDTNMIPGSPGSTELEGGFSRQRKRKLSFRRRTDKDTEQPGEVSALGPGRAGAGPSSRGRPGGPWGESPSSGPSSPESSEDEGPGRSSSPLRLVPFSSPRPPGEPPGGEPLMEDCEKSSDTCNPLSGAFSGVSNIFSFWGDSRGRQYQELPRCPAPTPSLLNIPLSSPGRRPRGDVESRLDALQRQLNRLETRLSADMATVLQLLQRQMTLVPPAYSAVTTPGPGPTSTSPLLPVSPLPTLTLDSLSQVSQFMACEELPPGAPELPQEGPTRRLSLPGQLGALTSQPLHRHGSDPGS
Take `CN(C)c1ccc(N/C=C/C(=O)c2ccco2)cc1`: the “hERG current change (%, negative = inhibition) at 1uM” value is recorded as 14%.
As for `COc1ccc(CNC(=O)C(OC(C)=O)c2ccccn2)cc1` (stereo not drawn), the “hERG current change (%, negative = inhibition) at 1uM” value is listed as 9.68%.
As to `CC1(C(=O)O)CCC(C(N)=O)C1(C)C` (stereo not drawn), the “hERG current change (%, negative = inhibition) at 1uM” value is 8.16%.
Take `COc1ccccc1-n1cnc2cc(C(=O)NCC3CCCO3)ccc21` (stereo not drawn): the “hERG current change (%, negative = inhibition) at 1uM” value is -0.991%.
With `O=C(CCCSc1nc2ccccc2[nH]1)NCc1ccccc1Cl`, the “hERG current change (%, negative = inhibition) at 1uM” value was found to be 9.01%.
For the compound `COC(=O)CSc1nc(COc2ccccc2)nc2ccccc12`, the “hERG current change (%, negative = inhibition) at 1uM” value was found to be 12.5%.
To `CCOc1ccc(N2C(=O)CC(N3CCC(O)(c4ccc(Br)cc4)CC3)C2=O)cc1` (stereo not drawn) belongs -22.2%; to `Cc1ccc(S(=O)(=O)NCC(=O)N2CCC(C)CC2)cc1`, 9.16%; to `COc1cccc(OC)c1OCCNCCO`, 19%.
Then `O=C(NC(=S)Nc1ccccc1Cl)C1CC1`, with 17.1%.
`Cc1cccc(N(C(=O)Nc2ccc(Cl)cc2)C2=NCC(C)S2)n1` (stereo not drawn): the “hERG current change (%, negative = inhibition) at 1uM” value is 8.99%.
On to `COc1cccc(C(=O)Nc2ccc(N3CCCC3)cc2)c1`, for which the “hERG current change (%, negative = inhibition) at 1uM” value is 13.8%.
As to `Cc1ccc(-n2ncc3c(=O)n(CC(=O)Nc4cccc(Cl)c4)cnc32)cc1C`, the “hERG current change (%, negative = inhibition) at 1uM” value came out at 12%.
For the compound `COc1ccccc1OCCNC(=O)c1cccs1`, the “hERG current change (%, negative = inhibition) at 1uM” value was 3.03%.
As to `CCOC(=O)c1c(-n2cnnn2)sc2c1CCCC2`, the “hERG current change (%, negative = inhibition) at 1uM” value turned out to be 10.1%.
Consider `COc1ccc([N+](=O)[O-])cc1NC(=O)C(C)N1CCCC1` (stereo not drawn), for which the “hERG current change (%, negative = inhibition) at 1uM” value is recorded as 17%.
Regarding `Cc1cc(C)c2[nH]c(=O)c(C(c3nnnn3CC3CCCO3)N3CCCC(C)C3)cc2c1` (stereo not drawn), the “hERG current change (%, negative = inhibition) at 1uM” value was found to be 8.26%.
With `Cc1csc(NC(=O)c2cn3ccccc3n2)n1`, the “hERG current change (%, negative = inhibition) at 1uM” value is reported as -1%.
`COc1ccc(C2c3ccc(O)cc3Oc3ncn4nc(-c5ccco5)nc4c32)cc1OC` (stereo not drawn): the “hERG current change (%, negative = inhibition) at 1uM” value is recorded as 13.1%.
As to `Cc1nnc(SCC(=O)NC2CCC(C)CC2)s1` (stereo not drawn), the “hERG current change (%, negative = inhibition) at 1uM” value is 4.9%.
To `Cc1ccc(-c2noc(CN(C(=O)CCCCCN3C(=O)c4ccccc4C3=O)C(C)C)n2)cc1` belongs 2.48%; to `CCOC(=O)C1(Cc2cccc(OC)c2)CCN(Cc2cccn2-c2nccs2)CC1`, -77.7%; to `CC1CN(C(=O)COC(=O)c2ccc(O)cc2)CC(C)O1` (stereo not drawn), 13.3%.
Turning to `Cc1cccc(-c2noc(CNC(=O)Nc3ccc(F)cc3)n2)c1`, the “hERG current change (%, negative = inhibition) at 1uM” value came out at 11.4%.
On to `O=S(=O)(c1ccc(-c2nnc(SCc3ccccc3)o2)cc1)N1CCCC1`, for which the “hERG current change (%, negative = inhibition) at 1uM” value was 2.46%.
As for `Nc1nc(NCC2CCCO2)nc(NCC2CCCO2)c1[N+](=O)[O-]` (stereo not drawn), the “hERG current change (%, negative = inhibition) at 1uM” value stood at 1.3%.
As for `O=S1(=O)CCOCCCN1Cc1ccccc1Br`, the “hERG current change (%, negative = inhibition) at 1uM” value was 11.2%.
